# According to PubChem BioAssay AID588334 (Broad Institute, 2011):
# The whole screen tested about 300,000 compounds, of which about 2,300 (0.77%) were called active. Inconclusive results, whose numbers are uncertain, are shown with a selection of clear calls.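 The calls were made as follows: active = mean activation of at least 80% with every replicate also reaching 80%; inconclusive = mean reaches 80% but some replicate falls short; inactive = the rest.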
# Test: MITF-driven TRPM1 luciferase induction in melanoma cells – cell-based, SK-MEL-5, single point, primary screen (AID 588334);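 also: 0% = neutral control wells and 100% = parthenolide positive control wells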
# Conditions: SK-MEL-5 TRPM1-promoter luciferase, 24 h; at 12.5 µM; active compounds read high; % of positive control, neutral wells = 0
row,SMILES,activation
1,CCCC(=O)N1CCN(c2nc3ccc(Br)cc3s2)CC1,inactive: 67.4%
2,CC(=O)c1ccc(OCC(=O)N2CCCC2c2ccc3c(c2)OCCCO3)cc1 (centres undefined),inactive: 8.03%
3,Cc1ccc(C)c(S(=O)(=O)Nc2ccc(-n3cnnn3)cc2)c1,inactive: 11.8%
4,c1ccc2c(c1)Cc1cc(CN3CCOCC3)ccc1-2,inconclusive: 82.2%
5,Cn1cccc1/C=N/NC(=O)c1ccccn1,inconclusive: 81%
6,Cc1ccc(S(=O)(=O)C(C#N)c2nc3ccccc3nc2N2CCC(C)CC2)cc1 (centres undefined),inconclusive: 101%
7,O=C(Nc1ccn(Cc2ccc(Cl)cc2)n1)c1ccccc1,inconclusive: 83.5%
8,CC1CCc2sc(C(=O)Nc3ccc(C(N)=O)cc3)cc2C1 (centres undefined),inconclusive: 80.9%
9,CCOc1ncccc1C(=O)NCc1cccc(OC)c1,inactive: 7.17%
10,O=C(N/N=C/c1ccc(Cl)cc1)Nc1ccccc1,active: 94.8%
11,CS(=O)(=O)N1CCN(c2ccccc2NC(=O)c2ccco2)CC1,inactive: 5.57%
12,COc1ccc2c(c1OC)C(=O)N1c3ccccc3COC21 (centres undefined),inconclusive: 80.1%
13,COc1cc2c(C)nc3c(cnn3-c3ccccc3)c2cc1OC,inconclusive: 86.7%
14,CCOc1ccc(NC(=O)Nc2ccc(Br)cn2)cc1,inconclusive: 81.3%
15,CCc1nnc(NC(=O)Nc2ccc(OC)cc2)s1,inconclusive: 86.9%
16,COc1ccc(/C(N)=N/OC(=O)Cc2cccs2)cc1,inconclusive: 86.5%
17,Cc1ccc(NC(=O)N(C2=NCC(C)S2)c2ccccc2)cc1 (centres undefined),inconclusive: 80.7%
18,COc1ccc(-c2cc3cccc(OC)c3oc2=O)cc1,inactive: 35.2%
19,COc1cccc(Nc2ccc(N3CCCCC3)cc2)c1OC,inconclusive: 85.3%
20,CC(=O)c1cccc(NC(=O)c2ccc3ccccc3c2)c1,inconclusive: 88.6%
21,COc1ccc(/C=C/C2=Nc3ccccc3NC(C)(C)C2)cc1OC,inconclusive: 80.2%
22,CC1(C(=O)OCc2cc(=O)n3cc(Br)ccc3n2)CC1(Cl)Cl (centres undefined),inconclusive: 86.3%
23,Cn1c(NCc2ccccc2O)nc2ccccc21,inconclusive: 84.4%
24,CC(OC(=O)c1ccc([N+](=O)[O-])o1)C(=O)Nc1nc(-c2ccc(F)c(F)c2)cs1 (centres undefined),inconclusive: 97%
25,CCc1sc(C(=O)Nc2ccc3nc(C)sc3c2)cc1C,active: 90.3%

row,SMILES,activation
1,O=C(OCc1ccc(F)cc1)c1ccc2c(c1)-c1ccccc1C2=O,inconclusive: 81%
2,NC(=S)N/N=C/c1ccc(-c2ccc(Cl)c(Cl)c2)o1,inactive: 4.97%
3,COc1ccc2sc(NC(=O)CC(C)C)nc2c1,inconclusive: 85.7%
4,c1ccc(COc2ccc3nocc3c2)cc1,active: 117%
5,Cc1ccc(NC(=O)c2cc(F)c(F)cc2Cl)nc1,inconclusive: 84%
6,COc1cccc(/C=N/NC(=O)NC2CCCCC2)c1O,inconclusive: 83.4%
7,CC(OC(=O)c1ccc2c(c1)OCCO2)C(=O)c1ccccc1 (centres undefined),inconclusive: 81.6%
8,COc1ccc(C(=O)NNC(=S)Nc2ccccc2)cc1,inconclusive: 80.3%
9,COc1ccc(C(=O)COC(=O)c2cccc(-n3cnnn3)c2)c(OC)c1,active: 92.1%
10,CCC(=O)Nc1ccc2nc(C3CC3)n(Cc3ccccc3)c(=O)c2c1,inconclusive: 81.7%
11,Cc1ccc(N2C(=O)S/C(=C/c3cn(C)c4ccccc34)C2=O)cc1,inconclusive: 80.9%
12,CCN1/C(=C2\OC(=S)N(C)C2=O)Sc2ccccc21,inconclusive: 84.9%
13,Clc1cccc(-c2cc3nc4c(c(N5CCOCC5)n3n2)CCCC4)c1,inconclusive: 84.5%
14,Cc1ccc(OC(=O)Nc2ccccc2)cc1,inconclusive: 83.4%
15,c1ccc(CSc2ccc(-c3cccs3)nn2)cc1,inconclusive: 81.7%
16,N/C(=N\OC(=O)c1ccco1)c1cccc(Br)c1,inactive: 55.5%
17,COc1ccc2cc(-c3csc(-c4cccnc4)n3)ccc2c1,inconclusive: 87.3%
18,CC(=O)NCCC1CCCCN1C(=O)c1cc(COc2cc(C)ccc2C)on1 (centres undefined),inconclusive: 84.3%
19,O=C(Cc1ccccc1)Nc1nc2ccccc2s1,inconclusive: 84.6%
20,O=C(c1ccco1)N1CCN(C(=O)c2ccc(-c3ccccc3Cl)o2)CC1,inconclusive: 80.7%
21,Cc1cc(C)n(-c2nnc(NC(C)(C)C)nn2)n1,inconclusive: 80.8%
22,COc1ccc(-c2cc3ccccc3[nH]2)cc1,inconclusive: 83.2%
23,O=C(NC1CCCC1)c1cc2cc(Br)ccc2o1,inconclusive: 80.4%
24,COc1cccc(/C=C/C(=O)Nc2cccc(C(C)=O)c2)c1OC,inconclusive: 80.8%
